Test results published in patent US20150250167A1, “COMPOSITION FOR NOXIOUS ORGANISMS-CONTROLLING AGENT AND METHOD FOR USING THE SAME” (priority 2001, published 2015).
Where two headings read alike, the source gives them in different places.

Columns and labels:
[1] = test system: Small Brown Planthopper (Laodelphax striatellus); test: Control of small brown planthopper on paddyfield rice by nursery box application, number of parasitic insects; format: in vivo; details: 0.5 g ai/Box, single agent
[2] = test system: Bulrush (Scirpus juncoides Roxb.); test: Herbicidal effect on bulrush by submerged application to main paddyfield; format: in vivo; design: key: 0 means “no effect”; 10 means “complete withering”; details: 10.0 g ai/10a; four weeks after the treatment
[3] = test system: Resistant Strain of Two-Spotted Spider Mite; details: 100 ppm, single agent, 2 days after spraying
Rice Blast [4] = format: in vivo; details: 10.0 g ai/10a; submerged application
[5] = test system: Brown Rice Planthopper (Nilaparvata lugens); test: Insecticidal test on brown rice planthopper, rice seedling dipping; format: in vivo; details: 100 ppm, single agent; for Death rate (%) After 1 days: after 1 day
[6] = test system: Rice Leafroller (Cnaphalocrosis medinalis); test: Control of rice leafroller on paddyfield rice by nursery box application, number of injured leaves; format: in vivo; details: 0.5 g ai/Box, single agent
[7] = test system: Barnyard Grass (Echinochloa crus-Galli); test: Herbicidal effect on barnyard grass by submerged application to main paddyfield; format: in vivo; design: key: 0 means “no effect”; 10 means “complete withering”; details: 10.0 g ai/10a; four weeks after the treatment
[8] = test system: Green Peach Aphid (Myzus persicae); test: Insecticidal test on green peach aphid, spraying of Chinese cabbage, control value; format: in vivo; details: Myzus persicae, 144 h, single agent, 6 days after spraying, read-out: Control degree (%)
Cutworm = test: Test for the effect against cutworm on beet, drench, number of injured hills per 100 hills; format: in vivo; details: 15 g ai/10a
[9] = test system: Diamondback Moth (Plutella xyloxtella); test: Control of diamondback moth on cabbage by soil treatment, number of parasitic insects; format: in vivo; details: 5 mg ai/hill, 21 days after transplanting
Aphid = test: Control of aphid on cabbage by soil treatment, number of parasitic insects; format: in vivo; details: 5 mg ai/hill, 21 days after transplanting
[10] = test system: Citrus Yellow Thrips (Frankliniella occidentalis); test: Control of citrus yellow thrips on egg plant by combined use with natural enemy pesticide, number of thrips; format: in vivo; details: 100 ppm, spray
[11] = test system: Rice Water Weevil (Lissorhoptrus oryzophilus); test: Control of rice water weevil on paddyfield rice by nursery box application, extent of injury; format: in vivo; details: 0.5 g ai/Box, single agent
[12] = test system: Southern Root-Knot Nematode (Meloidogyne incognita); test: Test for the effect on southern root-knot nematode, soil blending with granular preparation; format: in vivo; details: 300 g ai/10a, single agent, 60 days after treatment
rice plant = details: 10.0 g ai/10a; four weeks after the treatment
[13] = test system: Smaller Tea Tortrix (Adoxophyes orana fosciota); test: Insecticidal test on smaller tea tortrix, tea leaf dipping; format: in vivo; details: Adoxophyes orana, foliar, single agent 0.1 ppm, 4th instar larvae, 25° C.
Rice Blast [14] = format: in vivo; details: 0.5 g ai/Box, single agent
[15] = test system: Rice Leafroller (Cnaphalocrocis medinalis); test: Control of rice leafroller by submerged application to main paddyfield, percentage of injured leaves; format: in vivo; details: 10.0 g ai/10a
[16] = true leaf extraction season treatment
[17] = 96 h, read-out: Death rate (%) After 4 days
[18] = 168 h, read-out: Death rate (%) After 7 days

| SMILES | Number of parasitic planthoppers per 30 hills After 40 days [1] | Number of parasitic planthoppers per 30 hills After 60 days [1] | Herbicidal effect fulrush [2] | Death rate (%) [3] [%] | Areal rate of disease spot (%) After 60 days (Rice Blast [4]) [%] | Death rate (%) After 1 days [5] [%] | Death rate (%) After 5 days [5] [%] | Percentage of injured leaves (%) After 50 days [6] [%] | Herbicidal effect barnyard grass [7] | pest or weed control at 100 ppm [8] [%] | Number of injured hills per 100 hills, After 60 days (Cutworm) | Number of injured hills per 100 hills, After 90 days (Cutworm) | Number of injured hills per 100 hills, After 120 days (Cutworm) | Number of parasitic insects per 30 hills, Diamondback moth ([9]; plant foot treatment) | Number of parasitic insects per 30 hills, Diamondback moth ([9]; pre-transplanting treatment) | Number of parasitic insects per 30 hills, Diamondback moth ([9]; pricking-in hole treatment) | Number of parasitic insects per 30 hills, Diamondback moth ([9]; soil incorporation) | Number of parasitic insects per 30 hills, Diamondback moth [9, 16] | Number of parasitic insects per 30 hills, Aphid (Aphid; plant foot treatment) | Number of parasitic insects per 30 hills, Aphid (Aphid; pre-transplanting treatment) | further results |
| --- | --- | --- | --- | --- | --- | --- | --- | --- | --- | --- | --- | --- | --- | --- | --- | --- | --- | --- | --- | --- | --- |
| Cc1cc(C(F)(C(F)(F)F)C(F)(F)F)ccc1NC(=O)c1cccc(I)c1C(=O)NC(C)(C)CS(C)(=O)=O [Compound 130, N^2-(1,1-dimethyl-2-methylsulfonylethyl)-3-iodo-N^1-{2-methyl-4-[1,2,2,2-tetrafluoro-1-(trifluoromethyl)ethyl]-phenyl}phthalamide] | 331 | 382 | 0 | 10 | 7.9 | 0 | 0 | 0.16 | 0 | 10 | 0 | 7 | 19 | 1 | 1 | 2 | 1 | 1 | 498 | 421 | Number of parasitic insects per 30 hills, Aphid (Aphid; pricking-in hole treatment): 467; Number of parasitic insects per 30 hills, Aphid (Aphid; soil incorporation): 453; Number of parasitic insects per 30 hills, Aphid (Aphid; [16]): 399; Number of parasitic insects per 20 leaves, After 60 days [10]: 21; Number of parasitic insects per 20 leaves, After 90 days [10]: 28; Number of parasitic insects per 20 leaves, After 120 days [10]: 50; Extent of injury After 21 days [11]: 39.0; Number of nematodes per 25 g of soil sample [12]: 40; Phytotoxicity rice (rice plant): 0; pest or weed control at 0.1 ppm [13, 17]: 10%; pest or weed control at 0.1 ppm [13, 18]: 25%; Areal rate of disease spot (%) After 60 days (Rice Blast [14]): 8.3%; Percentage of injured leaves (%) After 50 days [15]: 0.13% |
| Cc1cc(C(F)(C(F)(F)F)C(F)(F)F)ccc1NC(=O)c1cccc(I)c1C(=O)NC(C)(C)C[S+](C)[O-] (stereo not drawn) [Compound 131, N^2-(1,1-dimethyl-2-methylsulfinylethyl)-3-iodo-N^1-{2-methyl-4-[1,2,2,2-tetrafluoro-1-(trifluoromethyl)ethyl]-phenyl}phthalamide] | 342 | 391 | 0 | 5 | 8.3 | 0 | 0 | 0.14 | 0 | 0 | 0 | 8 | 21 | 1 | 2 | 2 | 1 | 1 | 486 | 428 | Number of parasitic insects per 30 hills, Aphid (Aphid; pricking-in hole treatment): 391; Number of parasitic insects per 30 hills, Aphid (Aphid; soil incorporation): 432; Number of parasitic insects per 30 hills, Aphid (Aphid; [16]): 465; Number of parasitic insects per 20 leaves, After 60 days [10]: 23; Number of parasitic insects per 20 leaves, After 90 days [10]: 30; Number of parasitic insects per 20 leaves, After 120 days [10]: 54; Extent of injury After 21 days [11]: 41.2; Number of nematodes per 25 g of soil sample [12]: 41; Phytotoxicity rice (rice plant): 0; pest or weed control at 0.1 ppm [13, 17]: 5%; pest or weed control at 0.1 ppm [13, 18]: 20%; Areal rate of disease spot (%) After 60 days (Rice Blast [14]): 8.3%; Percentage of injured leaves (%) After 50 days [15]: 0.16% |
